The values below come from the supplement of paper PMC10600219.

Where a name gives a salt, the structure may show the parent alone. The full ranking holds about 2,800 compounds; the median of “cell viability relative to vehicle” is about 0.98, and the lowest 2% start at about 0.45. Some of the results follow.

The test system of the test is NCI-H2228 alectinib-DTP. As to the kind of experiment: cell viability relative to vehicle (fraction of vehicle); NCI-H2228 is an ALK-positive lung cancer line and DTP means drug-tolerant persister; higher = less growth inhibition. To be noted: 100 nM; treatment time 6 days. The method in brief:
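Drug-tolerant persister NCI-H2228 cells, produced by 13 days in 1000 nM of a targeted drug, and their parental counterparts were seeded into 384-well plates and, the following day, given the 3114-agent TargetMol anti-cancer compound library at 100 nM or DMSO vehicle. After 6 days, the CellTiter-Glo 3D Cell Viability Assay was used to read ATP. Each entry reports viability compared with vehicle-treated cells.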
In the case of `CC/C(=C(/c1ccc(/C=C/C(=O)O)cc1)c1ccc2[nH]ncc2c1)c1ccc(F)cc1Cl`, the cell viability came out at 1.07.

Compound `COc1cc(C(C)=O)ccc1O` [Acetovanillone] returned a cell viability of 1.07.

In turn, `CCCCCCCCCCCCCCCCOP(=O)([O-])OCC[N+](C)(C)C` [Miltefosine] came in with a cell viability of 1.16.

`CN(Cc1cnc2nc(N)nc(N)c2n1)c1ccc(C(=O)N[C@@H](CCC(=O)O)C(=O)O)cc1` [Methotrexate] came in with a cell viability of 0.68.

Take `N[C@@H](Cc1ccc(O)cc1)C(=O)O` [Tyrosine]: the cell viability stood at 1.23.

Compound `O=C(Nc1nccs1)C(c1cc(F)ccc1O)N1Cc2ccccc2C1=O` (centres undefined) registered a cell viability of 0.897.

`Nc1cc(F)ccc1NC(=O)/C=C/c1cnn(C/C=C/c2ccccc2)c1`: the cell viability is 0.925.

Turning to `O=C(O)CCCC[C@@H]1CCSS1` (racemic) [Thioctic acid], the cell viability was 1.08.

As to `NC(N)=Nc1nc(CSCC/C(N)=N/S(N)(=O)=O)cs1` [Famotidine], the cell viability was determined as 1.01.

Compound `Cc1cc(-c2ccccc2)nnc1NCCN1CCOCC1` [Minaprine dihydrochloride] came in with a cell viability of 1.01.

Turning to `Cc1cc(C=C2SC(=O)N(c3ccccc3)C2=O)c(C)n1-c1cccnc1`, the cell viability amounted to 1.02.

`CSc1ccc2c(c1)N(CCC1CCCCN1C)c1ccccc1S2` (centres undefined) [Thioridazine hydrochloride] gave a cell viability of 1.15.

As for `CC1=C(/C=C/C(C)=C/C=C/C(C)=C\C(=O)O)C(C)(C)CCC1` [Isotretinoin], the cell viability amounted to 0.675.

On to `CC/C(=C(/CC)c1ccc(O)cc1)c1ccc(O)cc1` [Diethylstilbestrol], for which the cell viability was 0.958.

For `COc1cc(OC)c(/C=C/S(=O)(=O)Cc2ccc(OC)c(NCC(=O)O)c2)c(OC)c1`, the cell viability stood at 0.655.

In turn, `CC(C)(C)S(=O)(=O)c1ccc2nccc(Nc3n[nH]c4ccc(F)cc34)c2c1` displayed a cell viability of 0.958.

`COc1ccc(-c2ccc3c(N4CCOCC4)nc(N4C[C@@H](C)O[C@@H](C)C4)nc3n2)cc1CO` showed a cell viability of 0.765.

On to `CC(=O)CC/C=C(\C)CC/C=C(\C)CC/C=C(\C)CCC=C(C)C` [Teprenone], for which the cell viability came out at 0.981.

Take `Cc1cc(C)cc(Oc2ccc(CNC(=O)[C@H](C)N)cc2C)c1`: the cell viability stood at 1.02.

`Cc1ccc([N+](=O)[O-])cc1S(=O)(=O)N(C)/N=C/c1cnc2ccc(Br)cn12` [PIK-75  hydrochloride] gave a cell viability of 0.201.

For the compound `Cc1ccc([N+](=O)[O-])cc1S(=O)(=O)N(C)/N=C/c1cnc2ccc(Br)cn12`, the cell viability worked out at 0.172.

Compound `Cc1noc(C)c1-c1ccc(-c2cc(C(N)=O)c(NC(N)=O)s2)c(O[C@H]2CCNC2)c1` came in with a cell viability of 0.933.

For the compound `CCN(c1cc(C#CCN2CCOCC2)cc(C(=O)NCc2c(C)cc(C)[nH]c2=O)c1C)[C@H]1CC[C@H](N(C)CCOC)CC1`, the cell viability amounted to 0.96.

In turn, `O=c1cc(-c2ccc(O)cc2)oc2c([C@@H]3O[C@H](CO)[C@@H](O)[C@H](O)[C@H]3O)c(O)cc(O)c12` [Vitexin] came in with a cell viability of 1.14.
